Read counts are not given, so values of variants with three or more changes are uncertain.
B1: LINE1-mini (parent)
chain: GGCAGAGCUCAACACAGCGUGGCAAAGUGGCUGUGGCUAGACUGCC

Variants of: B1
Assay: self-cleavage, relative activity (ratio to wild type); higher = more cleavage; in vitro, sequencing; the parent is a self-cleaving ribozyme

| Variant | self-cleavage |
| --- | --- |
| GGCAGACCUGAACACAGCGUCGAAAAGUGGCUGUGGCUAGACUGCC | 0.02 |
| GGCAGAGCACAACCCAGCGAGGCAAAGUGGCUGUGGCUAGACUGCC | 0.07 |
| GGCAGAGAUCAACAUAGCGUGGCAAAGUUGCUGUUGCUAGACUGCC | 0.21 |
| GGCAGAGCUCAACACAGCUUGGGAAACUGGCUGUGGCUAGACUGUC | 0.84 |
| GGCAGAGAUUAACACAGCGUGGAAAAGUGGCUGUGGCUAUACUGCC | 0.03 |
| GGCAGAGCUCAACCCAGCAUAGUAAAGUGGCUGUGGCUAUACUGCC | 0.18 |
| GGCAGUGCUCAACACAGCUUGGCAAAGUGGCUGUGGCUAGACUGCA | 0.49 |
| GGCUGAGAUCAACACAGCGUAGCAAAGUGGCUGUGGCUAGACUGCC | 0.65 |
| GUUAGAGCUCAACACAGCGUUGCAAAGUGGCUGUGGCUAGACUGCC | 0.1 |
| GGCAGAGCUCAACACAGCGUAGCAAUGUGUCUUUGGCUAGACUGCC | 0.37 |
| GGCAGAGCUCAACACAGCGUGCCAAAGUGGCCGUGGCUAGACUGAC | 0.12 |
| GGCAGAGCUAAACACAGCGAGGCAAAGUGGCUGCGGCUAGACUGCC | 0.01 |
| GGCAGAGCUUAACACAGCGUGACAAAGUGGCUGUGGCUAGACUUCC | 0.09 |
| GGCAGAGCACAGCACAGCGUGGCAAGGUGGCUGUGGCUAGACUGCC | 0.03 |
| GGCAAAGCUCAACACAGCGUUGCAAAGUGGGUGUGGCUAGACUGCC | 0.12 |
| GGCUGAGCUGAACGCAGCGUGGCAAAGUGGCUGUUGCUAGACUGCC | 0 |
| GGCGGAGCUCAACACAGCGUGGCUAACUGGCUGUGGCUAGACUGCC | 1.77 |
| GGCAGAGCUCAACACAGCGUGGCAAAGUGGCUGUGGCUACACUUCU | 0.02 |
| GGCAGAACUCACCACAGCGUGGCAAAGUGGCUGUGGCUAGAGGGCC | 0 |

| Variant | self-cleavage |
| --- | --- |
| GGCAGAGCUCAAAACAGCGUGGGAAAGUGGCUGUGGGUAGACUGCC | 0.03 |
| GGGUGAGCACAACACAGCGUGGCAAAGUGGCUUUGGCUAGACUGCC | 0.18 |
| GGGAGAGCUCAACACAGCGUGGCCAAGUGGUUGUGGCUAGACUGCC | 0.04 |
| GCCAGAGGUCAACACAGCGUGGCAAAGUGGCUGUGGCUAGACUACC | 0.04 |
| GUCAGAGCUCAACACAGCGUGGCAAAGUGGCUGUGGUUAGAAUGCC | 0.03 |
| GGCAGAGCUCAACACAGCGUGGCAAAGCGGCUGAGGCUAGACUGCG | 0.11 |
| GGCCGAGCUAAAUACAGCCAGGCAAAGUGGCUGUGGCUAGACUGCC | 0.01 |
| GGCGGGGCUCAACACAGCGUGGCAAAGUUGCUGUGGCUAGACUGCC | 0.03 |
| GGCAGAGCUCAACACAGCGUGGGAACGUGUAUGUGGCUAUACUGCC | 0.01 |
| GGUAGAGCUCAACACAGCGUGGCAAAGGGGCUGUAGCUAGACUGCC | 0.03 |
| GGCAGAGCCUAACAGAGCGUCGCAAAGUGGAUGUGGCUAGACUGCC | 0.02 |
| GGCAAAGUUCAACACACCGUGGCAAAGUGGCUGUGGCUAGACUGCC | 1.25 |
| GGCAGAGCUCAACACCGGGUGGCAAAGUGGCUGUGGGUAGACUGCC | 0.05 |
| GGCAGAGCUCAACACAGCGUGGCAAACUGGCCUUGGCUAUACUGCC | 0.09 |
| GGCAGAGCUCAACACAGCGUGGCAAAGUGGCUGUAGCUAAACUGUA | 0.08 |
| GGCAGAGCUCAACACAACGUGGCAAAGUGGCUGUGCCUAGAGUGCC | 0.03 |
| GGCAGAGCCCAACACAGCGUUGCAAAGUGGCUGUGGCUACACUGCC | 0.04 |
| GGUAGAGCACAACACAGCGUGGCAAAGUGGCUGUGGCUAGAAUGCC | 0.12 |
| GGCAGAGCUUAACACAGCGUGGCAAAGUGGCUGUGGCUAGAAUGAC | 0.01 |

| Variant | self-cleavage |
| --- | --- |
| GGCAGAGCACAACACAGCGUGGCAAAGUGGGUGAUGCUAGACUGCC | 0.03 |
| GGCAUAACUCAACACAGCGUAGCGAUGUGGCUGUGGCUAGACUGCA | 0.32 |
| GGCAGGGCUCAAGACAGCAUGGCAAAGUGGCUGUGACUAGAUUGCC | 0.14 |
| GGCAGGGAUCAACACAGCGUGGCAAAGUGGCUGUGGCUAGACAGCC | 0.39 |
| GGUAGAGCUCAACACAGCGUGGCAAAGUGGCUGUGGCCAGACUGUC | 0.08 |
| GGCUGGGCUGAACACAGCGUGGCAAAGUGGCUGUGCCUAGCCUGCC | 0.01 |
| AGCAGAUCUCAAGACAGCGUAACAAAGUGGCUGUGGCUAGACUGCC | 2.7 |
| AGCAGAGCUCAACACAACGUGGCAACGUGGCUGUGGUUAGACUGCC | 0.02 |
| GGCAGAGCUCAACACAGCGGGGCAAAGCGGCUGCGGCUAGACUGCC | 0.2 |
| GGCAGAGCUUAACACAGCGUGGCCAAGUGGCUGUGGCUAUACUGCC | 0.02 |
| GGCAGAGGUCAACACAGCUUGGCAAAGUGGCUGUGGCUAGAGUGCC | 0.02 |
| GGUAGAGCUCAACACAACGUGGAAAUGUGGCUUUGGCUAGACUGCC | 0.02 |
| GGCAGAGCGCACCACAGCGUGUCAAAGUGUCUGUGGCUCGACUGCC | 0.01 |
| GGCAGGGCUCAACACAUCGUGGCAAAGCGGCUGUGGCAAGCUUGCC | 0.39 |
| GGCAGGGCUUAACACAGCGUGGCAAAGUGGCUGUGGCUAGCCUGAC | 0.04 |
| GGCAGACCUCAACACACGGUGGCACAGUGGCUGGGGCUAGACUGCC | 0 |
| GGCAGGGCUCAACACAGCGUGCCAAAGUGGCUGUGUCUAGACAGCC | 0 |
| GGCACAACUCAACACCGCGUGGCAAAGUGGCUGUGUCUAUACCGCC | 0.01 |

— the RNAGym collection of RNA variant scans (doi:10.7554/elife.90254)
